Laboratory results published in the supplement of paper PMC10126150.
Values marked as one replicate rest on one cluster of the flow cell; about a third of the high ones do not repeat.

Test system: ATP
Assay: switch fluorescence ratio, 500 uM ATP over buffer (Cy3 cluster intensity, sum of 5 cycles each) (fold (ratio)); higher = stronger signal-on switching upon ATP binding; sequences stand for … in TCGTCGGCAGCGTCAGATGTGTATAAGAGACAGTTTTTTTTTTTTTTTTTTTTTTTTT…TC
Settings: aptamer strand: ATP DNA aptamer (quencher-CACCTGGGGGAGTATTGCGGAGGAAGG + anchor), 100 nM annealed; ATP concentration: 500 uM; one replicate
Summary of the method: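 Exposure to 500 uM ATP lasted 15 min at 22 °C before imaging, and a selection-buffer image was taken beforehand, for Cy3-labelled switching-strand clusters on a modified Illumina MiSeq flow-cell annealed to 100 nM quencher-labelled ATP aptamer. Five buffer/ATP cycles were run with NaOH stripping and re-annealing between them. The fluorescence ratio per cluster is summed target-cycle over summed buffer-cycle Cy3 intensity, averaged per switch-domain sequence. Clusters outside 100-1000 RFU were excluded.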

| Sequence | switch fluorescence ratio |
| --- | --- |
| AGCGTCGCCT | 1.02 |
| CCCGGCGGTT | 4.29 |
| GGTGCTAGCT | 0.999 |
| CGACTCTTGG | 0.968 |
| GTATAATGGA | 1.01 |
| TATAAGTGGG | 1.02 |
| AGCAGTATAG | 1.03 |
| ATAGTTGCGA | 1.03 |
| ACGCCTGAAC | 1.51 |
| AAGGAGAGAC | 1.01 |
| TATCAACTCG | 0.998 |
| GGCGGGGCGT | 0.989 |
| TGATCAACTT | 1.05 |
| ATATTTTTAC | 1.08 |
| GCTAGAGCGG | 0.994 |
| AGTATAAATG | 0.975 |
| AGAACAAGTT | 0.972 |
| TAACCATTGT | 0.971 |
| AAAGTCACCT | 1.2 |
| GCTGTTAAAA | 0.962 |
| TGGGCTGGTT | 0.996 |
| CGCCTCGCCA | 1.07 |
| GAGATCGTCC | 1.01 |

| Sequence | switch fluorescence ratio |
| --- | --- |
| TGATGAGAGA | 0.975 |
| GTAATTGGAA | 0.988 |
| GCGCTACAGG | 1.08 |
| AGGTTGCGTG | 0.973 |
| GCCACTGGCA | 0.998 |
| TGACACGTCG | 0.945 |
| ACGGTGTGTG | 0.976 |
| GGGCTGTACC | 1.02 |
| TTATCATTAA | 0.985 |
| GAAAGGCTTG | 1.05 |
| TTGTACGT | 0.996 |
| TGGTTTTAG | 1.03 |
| CCCGTTTAGC | 1.1 |
| ACAAGTTCAA | 0.985 |
| GTTCGTGGTC | 0.971 |
| ATGAGATTGG | 0.988 |
| CACCATTCGG | 1.02 |
| TACACGGGTC | 1.02 |
| AAACCCAGCA | 1.13 |
| CGTCTAGTTT | 0.991 |
| TCGATAAAAC | 1.04 |
| AAAGAGACTA | 1.02 |
| AACGTCTGCC | 1.05 |

| Sequence | switch fluorescence ratio |
| --- | --- |
| ATAAAATCCT | 1.22 |
| CAAAATCGCG | 1.05 |
| CCCGGGCATG | 1.03 |
| TTGGAGTACG | 1.02 |
| GCTCAAGTTA | 0.995 |
| ATATCTTCTT | 1.05 |
| GTATTTGTGA | 1 |
| GGGGAACGCG | 1.13 |
| TAGAGGTTCC | 1 |
| TATGACGATC | 1.03 |
| TAGTATATG | 0.948 |
| GATTATT | 1 |
| TCGGTGCAGC | 0.935 |
| GGTTACGTCA | 1.09 |
| CTCTTGGGTG | 0.986 |
| ACATAAAAAA | 1.18 |
| ATGCAAGTCG | 1.07 |
| GCTAGCACGC | 1.06 |
| AATGCATTTA | 0.978 |
| CATTTGGAGG | 1.01 |
| GACCTAACGC | 1.41 |
| TTATGGTAGG | 1.01 |
| TACGGCATAG | 1.15 |

| Sequence | switch fluorescence ratio |
| --- | --- |
| CGACAACTTC | 1.32 |
| AGTGTACGCT | 0.981 |
| GATGCAACTA | 1.18 |
| TTATTGAGTT | 1.01 |
| GAGGCCGGCT | 1.09 |
| CATGTTGTGA | 0.965 |
| ATTAAGGGTC | 0.891 |
| ATTAACGCGT | 0.993 |
| TGGTCTATGG | 1 |
| GACAGGTTCC | 1.1 |
| AACTCGTAAG | 0.991 |
| CTACGAAAAC | 1.52 |
| GAAGTTTCTG | 1.02 |
| GGGTCGGCTT | 0.953 |
| ACGTTTGTCA | 1.02 |
| TACCCTAGGG | 0.957 |
| CGTTGTTTTT | 1.01 |
| CCGAAGGGCA | 1.08 |
| TAGTGCGTTC | 0.995 |
| TAGCTCGTGT | 1.03 |
| CTTGAAAATT | 1.01 |
| ACGCCTTTAA | 1.04 |
| ACCTCGTATC | 1.01 |

| Sequence | switch fluorescence ratio |
| --- | --- |
| GTGACAAGAG | 0.979 |
| ATCACTATCG | 0.977 |
| CCCCGTGGTT | 1.4 |
| CCCATTAAAC | 1.09 |
| CTATGCCAGC | 0.936 |
| CTGTGTTACA | 0.986 |
| TGAAAGTTCT | 0.999 |
| GATGACTGTT | 1.04 |
| GGGTGCGCCG | 0.968 |
| GGTGCAATGG | 4.89 |
| TCGGGGACCC | 1 |
| TCTATTAACC | 1.03 |
| ATTTAGAGCT | 1.22 |
| CAGTCGTCTA | 1.01 |
| CCTTTCACTG | 1.18 |
| TGGCATAGAA | 0.981 |
| GATATAAGTG | 1.04 |
| CTTGGGG | 1.02 |
| GGGGCAATTG | 0.97 |
| CCGTCGTATG | 1.02 |
| TAGCTCGGAC | 1.01 |
| TCAGAAATTG | 0.966 |
| CTCGTTTTAG | 1.03 |

| Sequence | switch fluorescence ratio |
| --- | --- |
| TCGACGTAGC | 1.17 |
| GCGATCGCG | 0.978 |
| CTGGATAGAC | 1.08 |
| TTGAAGCATA | 1.19 |
| ACGCATGAAA | 1.03 |
| TTGAAAAGTA | 0.979 |
| CTTTCCCGC | 1.94 |
| AATACTCAGC | 1.08 |
| TTACACGACA | 1.26 |
| CTGAACCTAC | 1.49 |
| CTCGTTCATT | 0.988 |
| GCGTGGACAT | 1.01 |
| TACATTGGG | 0.974 |
| CCTTTGAATT | 1.13 |
| TCATCGGGTA | 1 |
| AATTTATTT | 0.984 |
| GGTGTTAGCA | 0.98 |
| CTATTGTTCC | 1.1 |
| TTGGATATAG | 0.995 |
| ACGAGGGCCT | 1.02 |
| TCTTGAGGCT | 0.989 |
| GATGTAATAA | 1.11 |
| CTAATGCATC | 1.09 |

| Sequence | switch fluorescence ratio |
| --- | --- |
| TATTTCAGTA | 1.04 |
| ACGTTTATGG | 1.01 |
| TACATTTGAA | 0.997 |
| TTCGATGTAC | 1.41 |
| CTCATTGTTC | 1.03 |
| AGGGATAGG | 1.84 |
| ATTCATTTAT | 0.995 |
| ATTGTAGGGG | 1.02 |
| TTAAGCGAGT | 0.96 |
| CCGGCCTGGG | 1.05 |
| TAAATTCAAC | 0.937 |
| GCAGTCAGG | 1.02 |
| TCTCTGTGAG | 0.956 |
| ATTTAGGATC | 0.996 |
| ACTTCGGTGC | 1.14 |
| CTGGGAAGA | 1 |
| CCGGGTTGCG | 1.05 |
| CTCTGCGATT | 4.77 |
| TCAGGTGCAT | 2.25 |
